Source: the supplement of paper PMC11417369
The other results are listed elsewhere or left out.

system: PfSIP2 AP2 domain 1 (GST-tagged); assay: gcPBM binding intensity (ln(normalized median fluorescence intensity)); higher = stronger DNA binding
Outline: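 After 1 h on an Agilent 4 × 180k array of primer-extended double-stranded 36-bp intergenic genomic probes and negative controls, bound GST-tagged P. falciparum DNA-binding domains were detected with Alexa488 anti-GST antibody and scanned at 488 nm. The domains had been expressed in E. coli, and binding took place in 1× PBS with 1% milk, 0.2 mg/ml BSA, 0.5% salmon testes DNA and 0.03% Triton X-100. Binding intensity is the highest Masliner-normalised natural-log median intensity across replicate spots of either probe orientation.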

Sequence	gcPBM binding intensity (ln)
TTTTTGTATTCTTCTTCTTCCAGACTACATTATGTC [XGTACX_negctrl_site235]	6.81
ATATATTTAAAATTGACACACATTTAATGACATTTT [CACACA_site3112]	6.96
TTTTTTTTTTTTTTTACACACATTTGAATAACTTTA [CACACA_site6810]	6.95
TATATGGGATATATGTGTACATATAAAATATGTATC [XGTACX_site3365]	7.14
CTTAATATGAATAAAACACACATATATAATTTGTAA [CACACA_site5120]	6.96
AAAAGAATTAAAAAATGTACATATAATATATATATA [XGTACX_site6721]	8.62
AAAAAAGAAGACATCTAAGTAATAGTAACAATGTAT [CACACA_negctrl_site1660]	6.98
GACATATTATTCATGTGTACATATTATATGTATATA [XGTACX_site3442]	7.13
AAGAATTTAGAAGGCATGCACTTAAACATGCATATA	9.26
TATAAATATACACCCACACACATATATAAATAAATA [CACACA_site7717]	7.25
CATATAATAAATAATACACACATATTGTAAATATAT [CACACA_site5734]	6.94
GTAATGAACAAACACAAAAAAAAAAAAAAAATAATA [TGCATGCA_negctrl_site344]	6.91
AATTGAGTATCGTGAGTGCAAAACGTGGTTCAAAGA	8.56
TAAAATAAAATAAAATGTACTTTCCTTTTGATAATA [XGTACX_site6288]	6.72
TTTTCCCTTACAGAAAAAAAAAAATTCCTAACCCCG [CACACA_negctrl_site650]	7.04
ATATATTTTAGGAGAGTGCATTTAATATTATTTAAT [GTGCAC_site9444]	8.99
TTATATATTTATAATCGTACAATAATTAACGTAAAA [XGTACX_site3206]	7.19
TTTTTCTTTTTTTTTTCCTTTATCACATAAGAAAAA [CACACA_negctrl_site192]	6.97
AAGATATGAGGGAATACACACATATATATATATATA [CACACA_site1581]	9.62

Sequence	gcPBM binding intensity (ln)
AAAATGAAGAAGTGCACACATATATATATTTATATA [CACACA_site507]	10.7
AAGAAAATAAATAATACACACAAGGATTTGTAAATA [CACACA_site690]	6.72
CTTTTTTTTTAAAAATGTACACATTTTTGAAAATAC [XGTACX_site3127]	7.09
ATATGTTTGATTTTTTTTTTTTTTTTTTTTATGTGT [CACACA_negctrl_site1001]	7.06
AAAAAAAAAATTAAAAGTACAGAAAATAAATAAATA [XGTACX_site7470]	6.85
TTAATACACCATAAAAGTACATAATATGATATTTAA [XGTACX_site8561]	7.03
TTATAAAAAGAACAATTAAAAAAAAATAAAATAAAA [XGTACX_negctrl_site398]	6.88
AGAATAGTGGAAAACACACACGTTTGAGATATGGAC [CACACA_site4782]	7.19
CACCCACCCACATACACACACATACACATATATATA [CACACA_site1722]	7.65
TTTTTATGTTCTATATATATATATATATATATATAT [GTGCAC_negctrl_site306]	9.54
GCACGTGTGATTAGATGTACATAACATGTATATGTC [XGTACX_site4632]	7.14
ATACATACATATGTATGTACGTATGTATGTATGTAT [XGTACX_site3853]	7.22
CAAATAAAAAAAGTAGCACACATGAATAAAATATAT [CACACA_site3130]	7.07
CATAATATATATTGAGCATGCTACTATTGTTAGAAA [TGCATGCA_site740]	6.93
ACATATAAGATATATACACACATATAAATACATTAA [CACACA_site7763]	7.17
AAAAAAAAAAACTACACACATACAAATATTTATATA [CACACA_site2574]	7.03
ATTAAATCATATGAATGTACGGATATATATATTTCC [XGTACX_site8650]	6.9
TGATAAATTTTCACATGTACATATATAGAATAACCT [XGTACX_site2860]	7.16
TAATAAGTATCAAAATGTACATGACAAAAATAATTT [XGTACX_site8961]	6.99

Sequence	gcPBM binding intensity (ln)
TCTAAAAAAATTATATCACACATTATAAAGCATATT [CACACA_site4885]	6.67
TATACACATAGACACACACACATACACGCACATACA [CACACA_site6908]	7.33
ATATATATGTATATATGTACATATATGTATATATAT [XGTACX_site4772]	7.69
ATAATTTTATATAAATGTACATACATTTTTATTATA [XGTACX_site7368]	7
ATAATATATGCAAAAACATGCACATAATATGTAAAA [TGCATGCA_site742]	9.05
ATTTGAAAAAATACTACACACCATATTGTTAATTTT [CACACA_site3829]	6.77
AAGATTCATATAAAAAGTACAAAAAGAAAAAAATAA [XGTACX_site6033]	6.89
ATATCTTCACTTATATGTACTTACATTTTTTTTTTT [XGTACX_site8696]	7.26
ATTTGTATATAATATATATAATTTTTTTTTTTTGTT [XGTACX_negctrl_site425]	6.92
ATAACTATATACATCTGTACATAATACATAGATAAA [XGTACX_site2795]	7.07
ATATATATATATGTATGTATATATATATGTTTGATT [XGTACX_negctrl_site62]	9.56
ATGAATTAACCTAATCGTACAATAAATATTATTATA [XGTACX_site596]	6.95
ACTATTTAAAAATATGGTACACGAAATTCAAGAGAA [XGTACX_site5903]	7.37
TTGTTTATGTGAGAAGTGCATTTTTTCGTTCATGTA	8.96
ATATGTTTAAAAATATGTACGTATTATATATTCTAT [XGTACX_site1358]	7.21
TTTTTTATTTTGTTGAAGCAATGAAAATGAATGAAA [TGCATGCA_negctrl_site495]	7.24
AAGTTTTATATTTATTAAATTTTTTTTTTTCCTTTT [XGTACX_negctrl_site184]	6.45
ATGTAAGTATAAAATGTGCGCATTGGGAATGAGGAC	7.95
TTTATATAAGGACATGCATGCTATTATTAAATATAT [TGCATGCA_site1011]	6.89
